Laboratory results from PubChem BioAssay AID463173 (ICCB-Longwood Screening Facility, Harvard Medical School, 2010).
The whole screen tested about 52,000 compounds, of which about 1,700 (3.3%) were called active. Rule as the data show it: active = survival mostly below about 52% (no sharp cut-off); inactive = mostly above about 56%. This is one part of the list.

Test system: Wild type
Assay: S. aureus survival, RN4220 and DeltatarO strains – OD600, teichoic acid synthesis inhibitors, primary screen (AID 463173)
Conditions: S. aureus RN4220 wild type/DeltatarO growth, OD600, 18 h, stronger effect = lower value, screened at 18.75 µg/mL (by protocol)

Compound	survival
CCOc1ccc(-c2nnc(SCC(=O)Nc3ccc(C)cc3C)o2)cc1	inactive: 87%
COc1ccc(-c2cn3c(n2)sc2cc(C(=O)Nc4ccc(C)c(Cl)c4)ccc23)cc1	inactive: 82%
CCc1ccc(NC(=O)c2cnn(-c3c(C)cccc3C)c2C2CCN(C(=O)OC(C)(C)C)CC2)cc1	inactive: 72%
CC1(C)N=C(SCc2ccc(Cl)cc2)c2ccccc2N1	inactive: 143%
O=C(NCCc1ccccc1)C(=O)NCC(c1cccs1)S(=O)(=O)c1cccs1 (configuration not stated)	inactive: 125%
Cc1cc(=O)[nH]c2nnc(SCc3ccccc3F)n12	inactive: 70%
Cc1c(C(=O)N2CCCCCC2)c(S(=O)(=O)Nc2cccc(C#N)c2)c(C)n1C	inactive: 77%
CCOC(=O)c1c(C)[nH]c(C)c1S(=O)(=O)N1CCC(C(=O)Nc2ccccc2CC)CC1	inactive: 57%
Cn1c(=O)cc(SCC(=O)NCc2ccc(F)cc2)c2cc(Cl)ccc21	inactive: 102%
Cc1ccc(S(=O)(=O)N2CCN(Cc3cc(=O)n4nc(-c5ccccc5Cl)sc4n3)CC2)cc1	inactive: 64%
COc1ccc(NC(=O)N2CCCn3nc(C)cc32)cc1OC	inactive: 78%
Cn1c(=O)c(=O)n(C)c2cc(NS(=O)(=O)c3ccc(Br)cc3)c(Cl)cc21	inactive: 65%
CCc1ccc(-n2nc(CO)c(C(=O)NCc3ccccc3Cl)n2)cc1	inactive: 84%
N#Cc1c(Nc2ccccc2)sc(C(=O)c2cccs2)c1N	inactive: 118%
CCCCNC(=O)CSc1nc2cc3c(cc2c(=O)n1Cc1ccc(C(=O)NCCc2ccc(OC)c(OC)c2)cc1)OCO3	inactive: 87%
CCn1c(C(=O)NCc2ccccc2Cl)cc2sc(Cl)cc21	inactive: 55%
COc1cc(S(=O)(=O)N(CC(=O)Nc2c(C)cccc2C)CC2CCCO2)ccc1-n1cnnn1 (configuration not stated)	inactive: 104%
COc1ccc(Cc2nc3ccccc3n2Cc2ccccc2C)cc1	active: 1%
Cc1cc2[nH]c(=O)c(=O)[nH]c2cc1S(=O)(=O)N1CCN(c2ccccc2)CC1	inactive: 75%
O=C(NCc1cccc(Cl)c1)c1ccc(NC(=O)N2CCSc3ccccc32)cc1	inactive: 73%
COc1ccc(-c2cc3ccc(O)c(CN4CCCC(C)C4)c3oc2=O)cc1OC (configuration not stated)	inactive: 83%
CC(Oc1ccccc1)C(=O)Nc1ccc(C(=O)OCc2cc(=O)n3nc(C4CC4)sc3n2)cc1 (configuration not stated)	inactive: 57%

Compound	survival
O=C(CCC(=O)N1Cc2ccccc2Oc2ncccc21)NCc1cccc(Cl)c1	inactive: 59%
Cc1nn(C)c(C)c1S(=O)(=O)N(CC(=O)Nc1ccc(F)cc1F)c1ccc(C(C)C)cc1	inactive: 115%
COc1ccc(NC(=O)Cn2c(=O)n(-c3ccc(C)cc3)c(=O)c3c2c2cc(C)ccc2n3C)cc1	inactive: 140%
Cc1ccc(Cc2c(C)nc3nc(SCC(=O)NCCC(C)C)nn3c2C)cc1	inactive: 64%
Cc1ccc(CN2C(=O)SC(Nc3ccc(Cl)cc3)C2=O)cc1 (configuration not stated)	inactive: 62%
CC1CCN(c2nc3ccc(C(=O)NC(C)C)cc3s2)CC1	inactive: 75%
O=C(Nc1onc2c1CCCC2)c1ccccc1	inactive: 108%
COc1cccc(CNC(=O)C(=O)NCC(c2ccco2)S(=O)(=O)c2ccccc2)c1 (configuration not stated)	inactive: 72%
c1ccc(OCCCn2nnc(-c3ccncc3)n2)cc1	inactive: 111%
O=C(CN1C(=O)CCn2nc(-c3ccccc3)cc21)NCc1ccccc1	inactive: 124%
COc1ccccc1CNC(=O)c1cnc2sc(N3CCCCC3)nn2c1=O	inactive: 65%
COc1cccc(C2C(C(=O)Nc3ccccc3OC)=C(C)Nc3nc(-c4ccco4)nn32)c1 (configuration not stated)	inactive: 82%
CCCOc1cccc(C2c3c(oc4ccc(F)cc4c3=O)C(=O)N2CCc2ccc(OC)cc2)c1 (configuration not stated)	inactive: 74%
COc1ccc(-n2nc(C(=O)NCCc3ccc(OC)c(OC)c3)c3c4ccccc4n(C)c3c2=O)cc1	inactive: 78%
CCC(Sc1nnc2c3ccccc3n(CC)c2n1)C(=O)Nc1ccc(NC(C)=O)cc1 (configuration not stated)	inactive: 106%
Cc1ccccc1-c1nc(CS(=O)(=O)CC(=O)NCCCc2ccccc2)c(C)o1	inactive: 138%
COc1ccc(C(=O)NCC(c2ccc(Cl)cc2)N2CCCCC2)cc1 (configuration not stated)	inactive: 84%
CCC(C(=O)Nc1cc(C(F)(F)F)ccc1Cl)n1nc(C)c2sc3ccccc3c2c1=O (configuration not stated)	inactive: 90%
COc1ccccc1CNC(=O)Cn1nc(C)n2cccc2c1=O	inactive: 87%
O=C(Cn1nc(Cc2cccnc2)c2ccccc2c1=O)Nc1ccc(F)c(Cl)c1	inactive: 67%
COc1ccc(-c2noc(CSc3nc4ccc(C)cc4[nH]3)n2)cc1	inactive: 47%
COc1cccc(CNC(=O)c2sc3ncccc3c2-n2c(C)ccc2C)c1OC	inactive: 94%

Compound	survival
O=C(Cn1cnc2onc(-c3ccc(F)cc3)c2c1=O)N1CCN(c2ccc(F)cc2)CC1	inactive: 59%
COc1ccccc1CNC(=O)CCn1c(=O)c2ccccc2n(CC(=O)Nc2cc(Cl)ccc2C)c1=O	inactive: 104%
CCOC(=O)c1ccc(N2C(=O)c3[nH]nc(-c4ccc(OC)cc4)c3C2c2cccc(O)c2)cc1 (configuration not stated)	inactive: 85%
CCc1cccc(NC(=O)CSc2ncc3c(n2)-c2cc(Cl)ccc2N(C)S3(=O)=O)c1	inactive: 65%
O=c1cc(COc2ccccc2Cl)nc2scc(-c3ccccc3)n12	inactive: 83%
COc1ccccc1NC(=O)Cn1nnc(C(=O)NCc2cccs2)c1N	inactive: 81%
Cc1ccc(Cl)cc1N1CCN(C(=O)Cn2nc(C)c3sc4ccccc4c3c2=O)CC1	inactive: 60%
Cc1ccc(S(=O)(=O)N2CCN(S(=O)(=O)c3ccc(C)cc3)CC2)cc1	inactive: 108%
Cc1ccc(C2NC(=O)c3n[nH]c(-c4cccs4)c32)cc1 (configuration not stated)	inactive: 78%
COc1ccc(NC(=O)CCS(=O)(=O)c2nc(-c3ccc4c(c3)OCO4)cc(C(F)(F)F)n2)cc1OC	inactive: 76%
CCC(C)NC(=O)CCSc1nc(-c2ccc3c(c2)OCO3)cc(C(F)(F)F)n1 (configuration not stated)	inactive: 132%
O=C(Nc1cccc(C(=O)OCc2cc(=O)n3c4c(sc3n2)CCCC4)c1)c1cccc(F)c1	inactive: 73%
Cc1ccc(NC(=O)CSc2nc(=O)n(Cc3ccccn3)c3c2CCC3)cc1F	inactive: 74%
COC(=O)c1c(NC(=O)Cc2coc3cc(C)cc(C)c23)sc2c1CCC2	inactive: 83%
COc1cc(C(=O)NCc2ccc3c(c2)CCN3C(=O)c2ccc(Cl)cc2)cc(OC)c1OC	inactive: 89%
O=S(=O)(NCc1ccccc1)c1ccc(S(=O)(=O)N2CCCCCC2)cc1	inactive: 109%
COc1ccc(C2CC(=O)c3cc(-c4nc(-c5cccc([N+](=O)[O-])c5)cs4)c(=O)n(-c4cccc(C)c4)c3C2)cc1 (configuration not stated)	inactive: 80%
Cc1ccc(NC(=O)CSc2nc3ccc(NC(=O)c4ccco4)cc3s2)cc1	inactive: 95%
CCN(CC)c1ccc(-c2nc(NC(C)=O)c3c(=O)oc4ccccc4c3n2)cc1	inactive: 110%
COCCNC(=O)c1c(NC(=O)c2cc(=O)c3cc(C)cc(C)c3o2)sc2c1CCCC2	inactive: 85%
CCc1ccc(NC(=O)c2cnc3c(-c4ccccc4)c(C)nn3c2C)cc1	inactive: 83%
C=CCc1c(C)nc2ccccc2c1Cl	inactive: 101%

Compound	survival
CC(=O)c1ccc(NC(=O)c2ccc(-c3nc(CSc4ccc(C)cc4)c(C)o3)cc2)cc1	inactive: 71%
O=C(Nc1ccccc1Cl)N1CCC2(CC1)Oc1ccccc1C(=O)N2Cc1ccc(F)cc1	inactive: 77%
COc1cccc(Cn2c(C)c(CNCc3cccc(C)c3)c(C(=O)O)c2C)c1	inactive: 122%
COc1cc2c(cc1OC)C(CC(=O)Nc1ccccc1)C(=O)NN=C2C (configuration not stated)	inactive: 105%
CCN(C(=O)c1ccco1)c1nc(CC(=O)Nc2ccc(Cl)cc2)cs1	inactive: 117%
Cc1cccc(-c2nc3c4ccccc4nc(N4CCN(c5cccc(Cl)c5)CC4)n3n2)c1	inactive: 67%
O=C(CSc1nc2ccccc2nc1Cc1ccccc1)N1CCc2ccccc21	inactive: 81%
Cc1cccc(NC(=O)CSc2nc(-c3cccs3)nc3cc(=O)[nH]n23)c1	inactive: 68%
COc1ccc(-c2c3c(nc4sc(C(=O)Nc5cccc(OC)c5)c(N)c24)CC(C)(C)CC3=O)cc1	inactive: 77%
CCc1ccccc1NC(=O)Cn1c(=O)n(CCc2ccccc2)c(=O)c2sc3ccccc3c21	inactive: 94%
N#C/C(=C\c1ccc(N2CCOCC2)o1)C(=O)NCC1CCCO1 (configuration not stated)	inactive: 108%
Cc1cc(C(=O)N2CCN(c3ccccc3F)CC2)c2c(C)nn(-c3ccccc3)c2n1	inactive: 134%
COc1ccc(NC(=O)N(CCN(C)C)Cc2cc3cc(OC)ccc3[nH]c2=O)cc1	inactive: 107%
Cc1cc(C)n2nc(CNS(=O)(=O)c3cccc(Cl)c3)nc2n1	inactive: 120%
Cc1[nH]c(=O)[nH]c(=O)c1Cc1cccc2ccccc12	inactive: 103%
COc1ccc(CCNC(=O)c2ccc(Cn3c(=O)c4cccn4c4cccnc43)cc2)cc1OC	inactive: 96%
CCCCN(C)C(=O)CSc1c2c(nc3ccc(Cl)cc13)CCCC2	active: -2%
CCC(C)NC(=O)c1ccc(CNS(=O)(=O)c2ccc3c(c2)C(C)(C)C(=O)N3C)cc1 (configuration not stated)	inactive: 97%
Cc1cc(C)c2oc(-c3cccc(NC(=O)c4cccc(F)c4)c3C)nc2c1	inactive: 70%
Cc1cccc(Cn2c(=O)n(-c3cc(C)cc(C)c3)c(=O)c3oc4ccccc4c32)c1	inactive: 78%
CCc1nn(CCCC(=O)NCc2ccccc2OC)c(=O)c2cc3occc3n12	inactive: 83%
